Measurements taken from PubChem BioAssay AID1347055 (National Center for Advancing Translational Sciences (NCATS), 2019).
Values joined by “and” are separate entries in the source; they are usually repeats but may differ in a detail not shown here. Equal entries are not always repeated. The whole screen tested about 54,000 compounds, of which about 120 (0.22%) were called active. The shares of active, inactive and inconclusive entries below differ from those in the screen. Calls follow the shape of the dose curve; as a rule, active = well fitted inhibition curve with a large enough effect; inconclusive = small, poorly fitted or top-dose-only effect, or effect the other way; inactive = flat fitted curve, though single readings scatter. No potency is given beside an inconclusive call; the fits are too rough. The source holds several records for some structures; these can differ, active in one and inactive in another.

target: Fumarate hydratase, mitochondrial (Homo sapiens) (UniProt P07954); experiment: Identification of activators of human fumarate hydratase by quantitative high-throughput screening; conditions: FH coupled MDH/diaphorase resazurin fluorescence, 15 min; activity change, negative = inhibition: at 79.9 µM (top of the series); also: the screen sought activators but most active calls are inhibition curves; nearly all actives have a fitted effect of over 45% in size
Chain of UniProt P07954 (P07954 whole entry, looked up): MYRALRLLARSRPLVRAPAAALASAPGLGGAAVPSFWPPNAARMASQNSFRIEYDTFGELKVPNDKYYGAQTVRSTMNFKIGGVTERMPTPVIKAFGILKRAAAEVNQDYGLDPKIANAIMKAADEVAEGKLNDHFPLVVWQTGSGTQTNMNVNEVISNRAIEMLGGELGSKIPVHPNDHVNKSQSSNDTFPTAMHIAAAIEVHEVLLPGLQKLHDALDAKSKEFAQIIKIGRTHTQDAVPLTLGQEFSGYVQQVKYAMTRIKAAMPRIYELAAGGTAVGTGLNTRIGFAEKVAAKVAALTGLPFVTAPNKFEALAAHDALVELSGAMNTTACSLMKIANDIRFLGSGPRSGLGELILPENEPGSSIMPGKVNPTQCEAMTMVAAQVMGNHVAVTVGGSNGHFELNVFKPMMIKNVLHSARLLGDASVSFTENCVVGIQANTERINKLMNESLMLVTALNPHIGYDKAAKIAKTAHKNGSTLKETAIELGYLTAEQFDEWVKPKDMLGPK
% is scaled to controls: 0 for no effect and ±100 for the full control effect; potency is read from the fitted curve at half-maximal effect; tags tell the direction and shape of the fitted curve.

Row | Compound | activity change, negative = inhibition | Potency
1 | COc1cc(NC(=O)c2cccc(-n3cc(NC(=O)Nc4cccc(C)c4)cn3)c2)cc(OC)c1OC | inactive: 4.25% | 
2 | Cc1cc(C)cc(Oc2nc3ccccn3c(=O)c2/C=C(\C#N)c2nc3ccccc3s2)c1 |  | inconclusive [inhibitor, partial curve, poor fit]
3 | COc1ccccc1NC(=O)c1cc2c(C)nn(-c3ccccc3)c2s1 |  | inconclusive [inhibitor, single point]
4 | COC(=O)c1ccc(CSc2nc3c([nH]c4ccccc43)c(=O)n2-c2cccc(Cl)c2)o1 | inactive: 0.771% | 
5 | c1ccc(-c2[nH]ncc2-c2ccnc3ccccc23)nc1 |  | inconclusive [activator, partial curve]
6 | COc1ccc(CCNc2nc3cc(OC)c(OC)cc3c3nc(-c4ccccc4)nn23)cc1OC |  | inconclusive [inhibitor, partial curve, poor fit]
7 | Cc1cccc(N2CCN(c3ncnc4c3nc3n4CCCCC3)CC2C)c1 (centres undefined) |  | inconclusive [inhibitor, partial curve, poor fit]
8 | CCOc1ccc(-c2nc(CSCC(=O)NCc3ccc(C)cc3)c(C)o2)cc1 | inactive: -22.9% | 
9 | Cc1ccc(C)c(-n2nnc(-c3nc(-c4ccccc4C)no3)c2C)c1 |  | inconclusive [inhibitor, single point]
10 | COc1cccc(C2C=C(c3ccccc3)Nc3c(C(=O)Nc4ccccc4)cnn32)c1OC (centres undefined) |  | inconclusive [inhibitor, partial curve]
11 | CCOC(=O)c1ccc(N2C(=O)c3n[nH]c(-c4cccs4)c3C2c2ccc(CC)cc2)cc1 (centres undefined) |  | inconclusive [inhibitor, partial curve, poor fit]
12 | Cc1cccc(N2CCN(C(=O)Cn3ncc4c5ccccc5n(C)c4c3=O)CC2C)c1 (centres undefined) | inactive: -11.6% | 
13 | O=S(=O)(NCc1ccc(Cl)cc1)c1ccc2[nH]c3c(c2c1)CCCC3 |  | inconclusive [inhibitor, single point]
14 | Cc1ccc(-n2cnc3cc(C(=O)NCc4ccc(F)cc4)ccc32)c(C)c1 |  | inconclusive [inhibitor, single point]
15 | CCOC(=O)c1cccc(NS(=O)(=O)c2ccc3[nH]c4c(c3c2)CCCC4)c1 |  | inconclusive [inhibitor, single point]
16 | CC(Sc1nc2c(c(=O)[nH]1)CCCC2)C(=O)Nc1cc(C(F)(F)F)ccc1Cl (centres undefined) |  | inconclusive [inhibitor, partial curve, poor fit]
17 | Cc1cccc(C(=O)NCCc2nc3ccccc3n2Cc2ccc(Cl)cc2)c1 | inactive: -24.5% | 
18 | COc1ccc(CNS(=O)(=O)c2cc(Br)cc3c2N(C(C)=O)C(C)C3)cc1 (centres undefined) | inactive: -32.1% | 
19 | CCOC(=O)c1cnc2ccc(C)cc2c1Nc1ccc(N(CC)CC)cc1 |  | inconclusive [inhibitor, partial curve, poor fit]
20 | CC#C[C@@H](CC(=O)O)c1ccc(OCc2cccc(-c3ccc(C(F)(F)F)cc3)c2)cc1 |  | inconclusive [inhibitor, partial curve]
21 | Cc1ccc(CCNC(=O)c2cc3c(-c4ccccc4F)nn(C)c3s2)cc1 |  | inconclusive [inhibitor, single point]
22 | COc1ccc(OCC(=O)OCc2cc(=O)n3nc(C4CC4)sc3n2)cc1 |  | inconclusive [activator, partial curve, poor fit]

Row | Compound | activity change, negative = inhibition | Potency
23 | CC(=O)N1CCc2c(sc3c2c(=O)n(-c2cc(Cl)ccc2C)c(=O)n3Cc2ccccc2F)C1 |  | inconclusive [inhibitor, single point]
24 | COC(=O)c1cc(Cl)ccc1NC(=O)CSc1ncc(S(=O)(=O)c2ccc(Br)cc2)c(=O)[nH]1 |  | inconclusive [inhibitor, partial curve]
25 | CC(C)(C)OC(=O)N1CCC(c2c(C(=O)N3CCCCC3)cnn2-c2cccc(F)c2)CC1 | inactive: -20.2% | 
26 | CCOC(=O)c1cc(S(=O)(=O)NCc2cccc(Cl)c2)[nH]n1 |  | inconclusive [inhibitor, single point]
27 | O=C(O)c1ccc(-c2c[nH]c3ncc(-c4ccccc4)cc23)cc1C1CCCC1 |  | inactive and active: 31.6 µM
28 | Cc1cccc(N2CCN(c3ncnc4onc(C)c34)CC2C)c1 (centres undefined) | inactive: -40.7% | 
29 | Cc1ccc(-n2c(-c3ccco3)nc3c(cnn3-c3ccc(C)cc3)c2=O)cc1 | inactive: -13.1% | 
30 | O=C(CC1(O)C(=O)N(Cc2ccccc2)c2ccc(Br)cc21)c1ccccc1 (centres undefined) |  | inconclusive [inhibitor, single point]
31 | COc1ccc(-n2cc(-c3ccccc3)c3c(NCCc4ccc(OC)c(OC)c4)ncnc32)cc1 |  | inconclusive [inhibitor, full curve]
32 | CN(C1CCCCC1)S(=O)(=O)c1ccc2c(c1)c(=O)c(C(=O)NCc1ccc(Cl)cc1)cn2C |  | inconclusive [inhibitor, single point]
33 | Cc1ccc(C)c(Nc2nn3c(=O)c4ccc(C(=O)NCc5cccs5)cc4nc3s2)c1 | inactive: 1.84% | 
34 | CCN1CCC[C@@H]1CNC(=O)c1ccc2c(c1)NC(=O)c1cccc(C)c1S2 | inactive: 8.71% | 
35 | O=C(Nc1ccc2nn(-c3ccc(Cl)cc3)nc2c1)c1cc2ccccc2o1 | inactive: -1.34% | 
36 | C[C@@H]1C(=O)OC[C@H]2C(C(=O)O)=C[C@@H]3CC(C)(C)C[C@]312 | inactive: -0.325% | 
37 | COc1ccccc1NC(=O)c1cc(S(=O)(=O)NCCC2=CCCCC2)ccc1F |  | inconclusive [inhibitor, partial curve, poor fit]
38 | O=C(NCc1cccc(Cl)c1)C1CCCN(c2ncnc3onc(-c4ccc(F)cc4)c23)C1 (centres undefined) |  | inconclusive [inhibitor, single point]
39 | CN1CCN(C(CNC(=O)c2ccccc2)c2ccc3c(c2)OCO3)CC1 (centres undefined) |  | inconclusive [inhibitor, full curve]
40 | Cc1ccc2c(c1)N(C(=O)Nc1cccc3c1CCCC3)CC(C)O2 (centres undefined) |  | inconclusive [inhibitor, partial curve, poor fit]
41 | Brc1ccc2nc(SCCOc3ccccc3)[nH]c2c1 |  | inconclusive [inhibitor, partial curve, poor fit]
42 | CCN(CC)CCCCNc1ncc2cc(-c3c(Cl)cccc3Cl)c(NC(=O)NC(C)(C)C)nc2n1 |  | inconclusive [inhibitor, single point]
43 | O=C(CSc1nnc2[nH]c(=O)cc(-c3ccccc3)n12)Nc1cc(C(F)(F)F)ccc1Cl | inconclusive: -41% [inhibitor] | 
44 | COc1ccc(C(=O)NCC(c2ccco2)S(=O)(=O)c2cccs2)cc1OC (centres undefined) | inconclusive: -50.5% [inhibitor] | 

Row | Compound | activity change, negative = inhibition | Potency
45 | COc1cnc(-c2ccc(Cn3c(CC(C)(C)C(=O)O)c(SC(C)(C)C)c4cc(OC[C@@H]5Cc6ccccc6N5C(C)=O)ccc43)cc2)nc1 |  | inconclusive [inhibitor, partial curve, poor fit]
46 | Cc1ccc(S(=O)(=O)N2CCC(n3c(C)nc4cccnc43)CC2)c(C)c1 | inactive: -19.2% | 
47 | CCOc1ccc(CCNC(=O)c2cc3sc(CC)cc3n2C)cc1OCC |  | inconclusive [inhibitor, single point]
48 | Cc1ccc(CNC(=O)c2ccc(-c3nc(CS(=O)(=O)c4ccc(C)cc4)c(C)o3)cc2)cc1 |  | inconclusive [inhibitor, single point]
49 | COc1cc2c(cc1O)CCC1C2CC[C@@]2(C)C1CC[C@@H]2O (some centres undefined) | inactive: 8.41% [at 53.3 µM] | 
50 | CCOC(=O)c1cnc2ccc(Cl)cc2c1Nc1ccc(N2CCOCC2)cc1 |  | inconclusive [inhibitor, partial curve, poor fit]
51 | COc1ccccc1-c1cc2nc(C)c(CCC(=O)Nc3cc(C)ccc3C)c(C)n2n1 | inactive: -17.3% | 
52 | CCc1cccc(NC(=O)c2ccc(CNS(=O)(=O)c3ccc4c(c3)C(C)(C)C(=O)N4C)cc2)c1 |  | inconclusive [inhibitor, partial curve, poor fit]
53 | COC1=Cc2c(nc3n(c2=O)C(C)C(=O)NC3(O)C(C)C)OC=C1 (centres undefined) | inactive: -0.461% [at 53.3 µM] | 
54 | O=C(OC1CN2CCC1CC2)N1CCc2ccccc2C1c1ccccc1 (centres undefined) | inactive: 2.64% | 
55 | Cc1cc(N2CCCCC2)nc2ccc(NC(=O)/C=C/c3ccccc3Cl)cc12 | inactive: -12.5% | 
56 | CCc1ccc(Nc2ncnc3c2cnn3-c2cc(Cl)ccc2C)cc1 |  | inconclusive [inhibitor, partial curve]
57 | CC(=O)OC1CC2(C)C(CCC(C)C23Cc2c(O)cc4c(c2O3)CNC4=O)C(C)(C)C1O (centres undefined) | inactive: 4% [at 53.3 µM] | 
58 | CCc1nonc1NC(=O)c1oc2ccccc2c1C | inactive: 3.9% | 
59 | OCC1=CC[C@@H]2C=CO[C@@H](O[C@@H]3O[C@H](CO)[C@@H](O)[C@H](O)[C@H]3O)[C@H]12 | inactive: 0.416% [at 53.3 µM] | 
60 | Cc1c(C)c2c(c(C)c1O)CCC(C)(COc1ccc(CC3SC(=O)NC3=O)cc1)O2 (centres undefined) |  | inconclusive [inhibitor, partial curve]
61 | Cc1ccc(N(Cc2cccs2)C(=O)c2ccc(Br)o2)cc1 |  | inconclusive [inhibitor, partial curve, poor fit]
62 | CCOc1ccc(CNC(=O)c2ccc(Sc3ccc(Cl)cc3)c(NC(C)=O)c2)cc1OC |  | inconclusive [inhibitor, partial curve]
63 | O=C1NC(Cc2ccccc2)C(=O)N2CCCC12 (centres undefined) | inactive: -8.37% | 
64 | CCOc1ccc(-c2nnc(SCC(=O)NCc3ccc(C)cc3)nc2-c2ccc(OCC)cc2)cc1 |  | inconclusive [inhibitor, full curve]
